In the supplement of paper PMC12582362:
Where a name gives a salt, the structure may show the parent alone. The campaign covered roughly 1,500 compounds. About 30 (2%) showed activity.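 The calls were made as follows: active = robust z-score below -2; a few such results were not called.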 Some of the results follow.

The molecules below were run on optoTopBP1 Flp-In 293 T-REx (HEK293) cells (assay: light-induced TopBP1 condensate (nuclear foci) count, plate-normalised robust z-score vs non-control wells; higher = more TopBP1 condensates (negative = condensation inhibitor), active = hit call of the paper). Details: 10 µM; incubation time 2 h.

Compound | light-induced TopBP1 condensate (z-score)
NC[C@H]1O[C@H](O[C@H]2[C@H](O[C@@H]3O[C@H](CO)[C@@H](O)[C@H]3O)[C@@H](O)[C@H](N)C[C@@H]2N)[C@H](N)[C@@H](O)[C@@H]1O [Ribostamycin sulfate salt] | inactive: 0.143
Cc1ccc(C(=O)c2cc(O)c(O)c([N+](=O)[O-])c2)cc1 [Tolcapone] | inactive: -0.692
COc1ccc2[nH]cc(CCNC(C)=O)c2c1 [Melatonin] | inactive: 0.29
COc1cc2nc(N3CCN(C(=O)c4ccco4)CC3)nc(N)c2cc1OC [Prazosin hydrochloride] | inactive: -1.44
CCCCS(=O)(=O)N[C@@H](Cc1ccc(OCCCCC2CCNCC2)cc1)C(=O)O [Tirofiban hydrochloride] | inactive: 0.237
CCn1cc(C(=O)O)c(=O)c2cnc(N3CCNCC3)nc21 [Pipemidic acid] | inactive: -0.521
COc1nc(C)nc(Cl)c1NC1=NCCN1 [Moxonidine] | inactive: 0.754
Cc1ccc(S(=O)(=O)NC(=O)NN2CC3CCCC3C2)cc1 (stereo not drawn) [Gliclazide] | inactive: -0.167
CCC(C)C(C(=O)OCC[N+](C)(CC)CC)c1ccccc1 (stereo not drawn) [Valethamate bromide] | inactive: -0.286
CC(=O)N[C@@H](CC(=O)N[C@@H](CCC(=O)O)C(=O)O)C(=O)O [Spaglumic acid] | inactive: 1.44
C#CCN(C)Cc1ccccc1 [Pargyline hydrochloride] | inactive: 0.044
COc1ccc2cc(CCC(C)=O)ccc2c1 [Nabumetone] | inactive: -0.637
C[C@H]1[C@@H](O)O[C@@H]2O[C@@]3(C)CC[C@H]4[C@H](C)CC[C@@H]1[C@@]24OO3 [Artenimol] | inactive: 0.222
CCN(CC)CCNC(=O)c1cc(S(C)(=O)=O)ccc1OC [Tiapride hydrochloride] | inactive: 0.628
O=C(CCCN1CC=C(n2c(=O)[nH]c3ccccc32)CC1)c1ccc(F)cc1 [Droperidol] | inactive: 0.975
CC1(C)OC(=O)NC1=O [Dimethadione] | inactive: -0.197
N=C(N)NCC1COC2(CCCCC2)O1 (stereo not drawn) [Guanadrel sulfate] | inactive: 0.53
Cn1nnnc1SCC1=C(C(=O)O)N2C(=O)[C@@H](NC(=O)[C@H](O)c3ccccc3)[C@H]2SC1 [Cefamandole sodium salt] | inactive: 0.121
CCC[C@H](N[C@@H](C)C(=O)N1[C@H](C(=O)O)C[C@@H]2CCCC[C@@H]21)C(=O)OCC [Perindopril] | inactive: 0.452
Nc1ccc(C(=O)NCC(=O)O)cc1 [Aminohippuric acid] | inactive: -0.961
Nc1ccc(S(=O)(=O)c2ccc(N)cc2)cc1 [Dapsone] | inactive: 2.21
CN(C)CCc1c[nH]c2ccc(Cn3cncn3)cc12 [Rizatriptan benzoate] | inactive: -0.77

Compound | light-induced TopBP1 condensate (z-score)
OCCN1CCN(CCCN2c3ccccc3Sc3ccc(Cl)cc32)CC1 [Perphenazine] | inactive: -0.632
C=C1C[C@H]2[C@@H]3C=C(C)C4=CC(=O)CC[C@]4(C)[C@H]3CC[C@]2(C)[C@@]1(OC(C)=O)C(C)=O [Melengestrol acetate] | inactive: -0.246
CC(=O)Oc1cccc2c1C(=O)c1c(OC(C)=O)cc(C(=O)O)cc1C2=O [Diacerein] | inactive: -1.09
CN1CCCCC1CCN1c2ccccc2Sc2ccc([S+](C)[O-])cc21 (stereo not drawn) [Mesoridazine besylate] | inactive: 0.412
NC(=O)N/N=C/c1ccc([N+](=O)[O-])o1 [Nitrofural] | inactive: -0.288
CN(C)CCC[C@@]1(c2ccc(F)cc2)OCc2cc(C#N)ccc21 [Escitalopram oxalate] | inactive: 0.231
CCCC(=O)Nc1ncnc2c1ncn2[C@@H]1O[C@@H]2COP(=O)(O)O[C@H]2[C@H]1OC(=O)CCC [Bucladesine sodium salt] | inactive: 1
CN1CCCC(n2nc(Cc3ccc(Cl)cc3)c3ccccc3c2=O)CC1 (stereo not drawn) [Azelastine hydrochloride] | inactive: -1.27
CCN1CCN(C(=O)N[C@@H](C(=O)N[C@@H]2C(=O)N3[C@@H]2SC(C)(C)[C@@H]3C(=O)O)c2ccccc2)C(=O)C1=O [Piperacillin sodium salt] | inactive: 0.0263
CO[C@@H]1[C@@H](OC(N)=O)[C@@H](O)[C@H](Oc2ccc3c(O)c(NC(=O)c4ccc(O)c(CC=C(C)C)c4)c(=O)oc3c2C)OC1(C)C [Novobiocin sodium salt] | inactive: 1.34
COc1c2occc2c(OC)c2c(=O)cc(C)oc12 [Khellin] | inactive: 1.99
Nc1cc(C(Cl)=C(Cl)Cl)c(S(N)(=O)=O)cc1S(N)(=O)=O [Clorsulon] | inactive: -0.193
CC(=O)c1cc2cccc(OCC(O)CNC(C)C)c2o1 (stereo not drawn) [Befunolol] | inactive: -0.826
CC[C@H](C)C(=O)O[C@H]1CCC=C2C=C[C@H](C)[C@H](CC[C@@H]3C[C@@H](O)CC(=O)O3)[C@H]21 [Mevastatin] | inactive: -0.133
CN1CCN(c2c(F)cc3c(=O)c(C(=O)O)cn(CCF)c3c2F)CC1 [Fleroxacin] | inactive: -0.0757
C[C@H](CCC(=O)O)[C@H]1CC[C@H]2[C@@H]3[C@H](O)C[C@@H]4C[C@H](O)CC[C@]4(C)[C@H]3CC[C@]12C [Chenodiol] | inactive: -0.27
CC(=O)OCC(CCn1cnc2cnc(N)nc21)COC(C)=O [Famciclovir] | inactive: 0.424
NNc1nncc2ccccc12 [Hydralazine hydrochloride] | inactive: 1.01
CN1CCN(CCCN2c3ccccc3Sc3ccc(Cl)cc32)CC1 [Prochlorperazine dimaleate] | inactive: -0.188
Cc1nc(=O)c2cc(CN(C)c3ccc(C(=O)N[C@@H](CCC(=O)O)C(=O)O)s3)ccc2[nH]1 [Raltitrexed] | inactive: -0.968
CC(/C=C1\SC(=S)N(CC(=O)O)C1=O)=C\c1ccccc1 [Epalrestat] | inactive: -0.306
